Experimental data published in the supplement of paper PMC10126150.
Values marked as one replicate rest on one cluster of the flow cell; about a third of the high ones do not repeat.

System: ATP
Assay: switch fluorescence ratio, 500 uM ATP over buffer (Cy3 cluster intensity, sum of 5 cycles each) (fold (ratio)); higher = stronger signal-on switching upon ATP binding; sequences stand for … in TCGTCGGCAGCGTCAGATGTGTATAAGAGACAGTTTTTTTTTTTTTTTTTTTTTTTTT…TC
Conditions: aptamer strand: ATP DNA aptamer (quencher-CACCTGGGGGAGTATTGCGGAGGAAGG + anchor), 100 nM annealed; ATP concentration: 500 uM; one replicate
Summary of the method: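 Clusters carrying Cy3-labelled switching strands on a modified Illumina MiSeq flow-cell were annealed to 100 nM quencher-labelled ATP aptamer and imaged in selection buffer. They were imaged again after 15 min with 500 uM ATP at 22 °C, over five buffer/ATP cycles with NaOH stripping and re-annealing in between. For each cluster, the fluorescence ratio is the summed Cy3 intensity of the target cycles divided by that of the buffer cycles, averaged per switch-domain sequence. Clusters outside 100-1000 RFU were left out.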
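Also: ATP exposure 15 min at 22 °C before imaging.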

Row | Sequence | switch fluorescence ratio
1 | CGAGCGGTTT | 1.01
2 | TATAACCTGG | 0.972
3 | AGACAAAATT | 0.965
4 | GGAAATGTCA | 0.987
5 | ATCGAAAGCC | 1.03
6 | GACGTGGATT | 1.07
7 | CAAGCCGTAT | 1.14
8 | ACGCAGATTT | 1.13
9 | TGGCAATTTT | 1.19
10 | AGAGGTAATG | 1.02
11 | CTTAGCTTCA | 1.04
12 | AATAAGCGG | 0.994
13 | ACGGTAGGGG | 1.19
14 | TTCATCTCTC | 1.01
15 | CCAGGGGGCC | 1.08
16 | CGTAGGGCAC | 1.09
17 | GCTCTCGGAT | 1
18 | AAGGCGGGCG | 0.995
19 | GGGTAGTCTC | 0.98
20 | TACGTCG | 1.04
21 | TAACGGTTGC | 0.994
22 | CCTAAGGGTC | 1.07
23 | AGGACGATAA | 1.09
24 | ATGCTACTAA | 1.1
25 | TGGTGGAGCT | 0.948
26 | ATAAGATGGG | 0.976

Row | Sequence | switch fluorescence ratio
27 | AGTCGACTGC | 1.04
28 | GTTCGAACTA | 0.997
29 | TTTCTTGCTC | 1.39
30 | TGTAAATAGT | 1.06
31 | TCAGCGTTGA | 1.03
32 | TCCAAATGTG | 0.99
33 | GCTAGCTCGA | 0.952
34 | TCCGAGATGA | 1.25
35 | CCCCACCCCG | 1.13
36 | GAGGTCTATG | 1.02
37 | AAACACGGCA | 1.12
38 | GTCATAAC | 1.22
39 | TCCAAGTAAT | 1.7
40 | AACTTGTTGG | 1.01
41 | AAACTCAATC | 1.09
42 | CCCGGTCTCG | 1.04
43 | GGCGATCCGT | 0.965
44 | TTGCAAGTGA | 1.01
45 | ATATGTTTGC | 1.02
46 | TCCCTAGTCG | 1.01
47 | CCATCCGATA | 3.23
48 | TGTAGCTTCA | 1.3
49 | TACTATTGA | 1.02
50 | TGCGATGCCC | 1.03
51 | GCATCTAGCT | 1.01
52 | ACGAGAAGGC | 1.02

Row | Sequence | switch fluorescence ratio
53 | AACGCTTCAT | 1.06
54 | AGAGCTACCC | 1.01
55 | TTATGGTATC | 1.02
56 | CAATTCGCAT | 1.52
57 | CCCGAGTGGC | 1.08
58 | GGGATCATCT | 0.987
59 | TAGAAGAACA | 1.04
60 | GCTGCGGGGG | 1.03
61 | TGGTTATAGC | 0.99
62 | ACTTTCACCC | 1.3
63 | GATAAGGGAA | 1
64 | AGACCAGGGT | 1.03
65 | GCGTCAGTTA | 1.04
66 | TTCTCATATT | 0.992
67 | ACCATGGCAG | 1.03
68 | ACAATATCAA | 1.04
69 | AGCAATAAGG | 1.17
70 | TAGAAGAGAT | 1.01
71 | GGAGGCTATA | 1.07
72 | TCGCAAGCTG | 1.29
73 | TGCCTACTTT | 1.03
74 | AAAACCGGTT | 1.02
75 | AGTATAGGT | 0.963
76 | GCGTTAGGTT | 1
77 | GTCACAGTGC | 0.988
78 | TGTTACTGTT | 0.983

Row | Sequence | switch fluorescence ratio
79 | GAATCCTT | 1.03
80 | GCGAGAATTA | 0.98
81 | ACCAAAACCG | 1.1
82 | GGGTTCGTAG | 0.993
83 | AGCCACCCGG | 1.05
84 | GCGCTGGAAA | 1.03
85 | TGGTCTAGAG | 1
86 | GTCTATGTAG | 0.977
87 | TAACATTTG | 1.03
88 | CGCAGCTGAG | 1.19
89 | TCTATCCTAG | 0.961
90 | TCGCAACAGC | 2.12
91 | ACGATCTCAC | 1.11
92 | TCACGTCAAA | 1.68
93 | TTCGAACGAC | 1.23
94 | TAAATTACAA | 1.02
95 | GCAATTGGGG | 0.996
96 | ATTGTTATCC | 0.989
97 | TGGAACGAGG | 1
98 | TGGGCGGCCC | 2.08
99 | TATGGGAATT | 0.976
100 | TATGTGGGAG | 1.04
101 | TTTGCTAATG | 1
102 | CCAATTGT | 1.01
103 | ACAAGCTAAA | 1.02
104 | GGCCTATGAC | 1.03

Row | Sequence | switch fluorescence ratio
105 | TTTATAAGAA | 1.08
106 | AGTTCTCGAA | 1
107 | GCATTTATT | 1.06
108 | ATGCCTGATG | 0.97
109 | ATGGCATGCG | 0.955
110 | CACCTAGTCT | 1.06
111 | CGCCGAGGAT | 1.05
112 | ATACTAGGAT | 1.01
113 | CAGATAGGGA | 0.982
114 | GGAGCGACGG | 1.05
115 | TGCATAATGT | 1.01
116 | TATAGGGACG | 1.12
117 | GGGGTGTGTC | 0.975
118 | AAGGGCGGCA | 0.997
119 | CGAGGTCGTA | 0.975
120 | GATTCGGGTG | 0.999
121 | TTTATTATC | 1.02
122 | GCTTAATTGA | 0.969
123 | CAGATTTTG | 1.02
124 | ACCATAGGCG | 1.06
125 | TTTGGGTGCC | 0.98
126 | GGAGGCTGTT | 1.03
127 | TAAAGTCCTT | 0.95
128 | AGTGGTGCTA | 1.01
129 | CCTATGCGAG | 1.61
130 | GGGCTAAGTG | 1.01

Row | Sequence | switch fluorescence ratio
131 | TCCGTGTA | 0.957
132 | TTGCTAATGG | 0.964
133 | GAGAAAGTCA | 0.988
134 | GGGGCCAATA | 1
135 | TGTAATGCTC | 1.68
136 | ACGTAATTTA | 1.14
137 | ATTAAACTTA | 1.01
138 | TGGCGAGGGG | 0.963
139 | GCCGTATCTA | 0.975
140 | GCGTGTTCTA | 0.964
141 | CTGATATGTT | 0.962
142 | CAATTGACGC | 1.02
143 | CCTTAATGTT | 1
144 | TTGTTCGTAA | 1.04
145 | GAGGAAGAGG | 0.992
146 | GTTCCGAGG | 1.23
147 | ACTTACGAA | 1.33
148 | CGCAGTGCGG | 1.04
149 | AGATGGAAGG | 0.992
150 | CGGCTTGTGC | 0.989
151 | TATCTGGGAG | 1.02
152 | CGCCAAGTTC | 1.03
153 | CGTATGGATG | 1.05
154 | CACAGTAGCT | 1.09
155 | TACGGGCAGG | 1
156 | TATGTAGGT | 1.02

Row | Sequence | switch fluorescence ratio
157 | ATGCTGAGGG | 1.03
158 | CGTGTAGGTG | 0.998
159 | CTAAGCTT | 0.984
160 | AACGGCTTTT | 0.992
161 | AGCTAGAGGG | 1.03
162 | TCTGCTTCGT | 1.03
163 | CTCTACATAT | 1.13
164 | CATGCATCAA | 1.01
165 | TTGAGCGCCG | 0.991
166 | TACGTCTGCC | 0.987
167 | AATTAATCAA | 1.01
168 | TTAACCCGGT | 1.02
169 | GTCCTCCCAG | 3.65
170 | GGTTGGGAGC | 0.992
171 | GGCACGCAAT | 5.55
172 | GGCCAAACCG | 1.02
173 | TTATAGCACT | 1.06
174 | TTCCTTCCGA | 3.47
175 | GAGTAGTGAG | 0.955
176 | GAGTTCAAGG | 0.974
177 | TGTGGTTGAT | 1.01
178 | GCCTTGTGCC | 0.958
179 | CAGATGCATC | 1.04
180 | TCGAGCTAAA | 1.16
181 | CGCTAATGCT | 2.54
182 | ATAGTAGGAG | 0.964

Row | Sequence | switch fluorescence ratio
183 | CTGATTACTC | 1.02
184 | CGGGCTGTAA | 0.999
185 | AAGCGGTGCT | 1.02
186 | TTGCCGCTTT | 1.01
187 | CCCTGGGAGA | 0.998
188 | TGAGAAACAA | 1.01
189 | CCAGTGCAGG | 1.16
190 | ACGCAAGAAT | 2.3
191 | CCAAGTTCTT | 0.992
192 | TCAAAACTCG | 1.02
193 | TAATGGCCGC | 0.973
194 | TGGGGCAGGA | 0.977
195 | GTTCCGGATG | 1.02
196 | CTAATACGTC | 1.09
197 | TAAGATGCG | 0.991
198 | ACGCTCATGC | 1.82
199 | CATCCTGTCA | 1.08
200 | CAATTAACGT | 1.06
201 | AACCACATG | 1.05
